Laboratory results published in article PMC4336329 (PLoS ONE, 2015).
The campaign covered roughly 310,000 compounds. About 14,000 (4.5%) showed an effect of 50% or more. The effect is printed as a negative number. The list shows a part of the results.

Target: human ether-à-go-go-related gene (hERG) potassium channel (human, UniProt Q12809)
Assay: primary screen, population patch clamp on CHO cells stably expressing hERG
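Also: peak tail current of the secondary pulse compared with the same well before compound.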

human ether-à-go-go-related gene (hERG) potassium channel, sequence (Q12809 whole entry, looked up): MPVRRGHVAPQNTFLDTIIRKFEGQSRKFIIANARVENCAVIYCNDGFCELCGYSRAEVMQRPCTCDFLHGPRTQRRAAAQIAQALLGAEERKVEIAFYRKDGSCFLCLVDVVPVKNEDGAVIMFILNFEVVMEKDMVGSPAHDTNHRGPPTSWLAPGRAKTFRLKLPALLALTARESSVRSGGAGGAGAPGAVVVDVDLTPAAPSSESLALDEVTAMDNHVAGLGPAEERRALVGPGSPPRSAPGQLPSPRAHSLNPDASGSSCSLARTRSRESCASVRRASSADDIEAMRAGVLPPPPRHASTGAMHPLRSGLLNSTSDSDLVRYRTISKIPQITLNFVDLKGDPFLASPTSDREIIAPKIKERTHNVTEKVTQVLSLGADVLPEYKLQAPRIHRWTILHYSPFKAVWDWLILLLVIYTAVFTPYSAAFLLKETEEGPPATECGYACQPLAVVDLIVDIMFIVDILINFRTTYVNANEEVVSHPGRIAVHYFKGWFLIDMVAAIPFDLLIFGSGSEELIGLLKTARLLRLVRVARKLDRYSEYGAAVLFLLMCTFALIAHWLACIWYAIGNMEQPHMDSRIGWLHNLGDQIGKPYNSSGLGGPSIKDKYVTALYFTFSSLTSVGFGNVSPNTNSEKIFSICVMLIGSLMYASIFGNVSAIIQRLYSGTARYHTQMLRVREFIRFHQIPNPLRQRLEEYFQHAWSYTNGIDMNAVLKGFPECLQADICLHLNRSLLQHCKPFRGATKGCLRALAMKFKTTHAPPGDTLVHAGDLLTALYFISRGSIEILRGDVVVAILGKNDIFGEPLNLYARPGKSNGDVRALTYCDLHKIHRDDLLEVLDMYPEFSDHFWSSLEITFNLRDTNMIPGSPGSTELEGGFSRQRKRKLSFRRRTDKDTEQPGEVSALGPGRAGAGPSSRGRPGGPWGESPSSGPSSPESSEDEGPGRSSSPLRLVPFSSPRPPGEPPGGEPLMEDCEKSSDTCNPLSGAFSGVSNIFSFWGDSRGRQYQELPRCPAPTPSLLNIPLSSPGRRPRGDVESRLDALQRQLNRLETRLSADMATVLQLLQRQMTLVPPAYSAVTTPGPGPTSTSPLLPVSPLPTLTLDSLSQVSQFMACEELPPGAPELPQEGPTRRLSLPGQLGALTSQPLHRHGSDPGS

Structure (SMILES)	hERG current change (%, negative = inhibition) at 10uM
NC(=O)c1ccccc1NC(=O)/C=C/c1ccccc1	4.98%
COc1ccc(C2NC(=S)NC3=C2CCCC3=C2SCCS2)cc1 (stereo not shown)	7.94%
COC(=O)C1CCN(C(=O)Cc2ccc(Br)cc2)CC1	-2.03%
CCCCn1c(N)c(N(CCOC)C(=O)COc2ccc(Cl)cc2)c(=O)[nH]c1=O	43.5%
CCOC(=O)C1C(=O)CC(C)(O)C(C(=O)OCC)C1c1ccc(NC(C)=O)cc1 (stereo not shown)	19.4%
CC(=O)Nc1ccc(NC(=O)CN(c2ccc(C(C)C)cc2)S(=O)(=O)c2ccccc2)cc1	37.6%
N#C/C(=C\c1ccc[nH]1)C(=O)Nc1ccccc1Cl	-18.2%
O=S(=O)(NCC1CC1)c1cccc(S(=O)(=O)N2CCCC2)c1	1.43%
COc1ccc(CCNS(=O)(=O)CCNC(=O)c2ccc3c(c2)OCO3)cc1	-9.33%
Cc1cc(C(=O)Nc2cccc(C)c2C)n(-c2ccccc2)n1	-11.7%
COc1ccc(C(CNC(=O)c2oc3cc(C)c(C)cc3c2C)N2CCCCC2)cc1 (stereo not shown)	19.1%
CCC(=O)N1c2ccc(S(=O)(=O)NCc3ccco3)cc2CC1C (stereo not shown)	-14.1%
Cc1c(N)c(C(C)(C)C)cc(C(C)(C)C)c1[N+](=O)[O-]	0.751%
O=C(O)Cc1ccc(NC(=O)c2ccc(NC(=O)C3CC3)cc2)cc1	-5.76%
Cc1cc(C)c(C(N)=O)c(SCC(=O)c2cc(C)c(C)cc2C)n1	5.67%
CC1Oc2ccccc2C=C1C1/C(=C(/O)c2ccccc2)C(=O)C(=O)N1CCCN(C)C (stereo not shown)	11.9%
O=C(COc1ccc(Cl)cc1)NCCSCc1ccccc1Cl	-4.8%
C=CCSc1nc2sc3c(c2c(=O)n1-c1ccccc1)CCN(C)C3	-7.23%
Cc1ccc(-c2cc(C(=O)OCC(=O)N(C)C3CCS(=O)(=O)C3)c3ccccc3n2)c(C)c1 (stereo not shown)	-48.3%
O=C(CCn1ccnc1)Nc1nc2ccccc2[nH]1	8.29%
O=C(O)CCCCCN1C(=O)/C(=C/c2ccncc2)SC1=S	16%
COC(=O)C(NC(=O)c1ccc(OC)cc1)(Nc1ncc(S(=O)(=O)c2ccc([N+](=O)[O-])cc2)s1)C(F)(F)F (stereo not shown)	-5.41%

Structure (SMILES)	hERG current change (%, negative = inhibition) at 10uM
O=C1CCC([N+](=O)[O-])C(c2cc3c(cc2Br)OCO3)N1 (stereo not shown)	-0.348%
Cc1cccc(-n2c(=O)c(C#N)cc3c(=O)n4ccccc4nc32)c1	-8.28%
Cc1cc(C)c(C(=O)CC2(O)C(=O)Nc3ccccc32)cc1C (stereo not shown)	9.1%
Cc1ccnc(NC(=O)c2ccc(S(=O)(=O)N3CCCCC3)cc2)c1	-17.9%
O=C(CN1CCN(Cc2ccc(Cl)cc2)CC1)N1CCc2ccccc21	-67.5%
O=C(NCC(=O)N1CC=C(c2ccccc2)CC1)c1ccco1	-78.4%
CC(CNC(=O)C(=O)NC(C)CCc1ccccc1)Cc1ccccc1 (stereo not shown)	16.8%
CN(C)CCCN(C(=O)c1ccc(Br)s1)c1nc2cc3c(cc2s1)OCO3.Cl	-52%
S=C(Nc1ccc(Cl)cc1)Nc1ccc2cn[nH]c2c1	14.4%
COCCSc1nnc(NC(=O)Cc2ccc(OC)c(OC)c2)s1	-7.09%
COc1cc(OC)c(OC)cc1C#N	-1.07%
Cc1cccc(OC(=O)c2cccnc2)c1C	-2.35%
CC(C)c1ccc(C(=O)Nc2ccc(N3CCOCC3)cc2)cc1	-11.5%
CCCC(=O)Nc1ccc(C(=O)Nc2ccc([N+](=O)[O-])cc2OC)cc1	13.4%
Cc1[nH]c2ccccc2c1C(=O)CN1CCCCC1C (stereo not shown)	-10%
Cc1ccc(OC(C)C(=O)N(Cc2cccs2)C2CCS(=O)(=O)C2)cc1C (stereo not shown)	0.377%
CC(C)CNC(=O)c1ccc(COc2ccc(Cl)cc2Cl)o1	-18.5%
C[C@H]1C=C(C(=O)O)O[C@@H](OCc2ccc(CO)cc2)C1	12.8%
CC1(c2ccc(OC(F)F)cc2)NC(=O)N(CC(=O)Nc2ccc(N3CCCCC3)cc2)C1=O (stereo not shown)	17.3%
Cc1ccsc1C(=O)NNC(=O)c1csc(N2CCOCC2)n1	12.7%
CC(C)CN(C(=O)c1ccc(C(F)(F)F)cc1)c1c(N)n(CC(C)C)c(=O)[nH]c1=O	24.5%
N=c1nc(SCCC(=O)O)ss1	3.64%

Structure (SMILES)	hERG current change (%, negative = inhibition) at 10uM
Cc1cc(-c2csc(Nc3ccccn3)n2)ccc1F	11.7%
O=[N+]([O-])c1cccc2c(S(=O)(=O)N3CCOCC3)cccc12	-27.7%
Cc1cccc(NC(=O)N2CCc3ccccc3C2)c1C	4.41%
Cc1ccc2nc(C(F)C(F)(F)F)[nH]c2c1 (stereo not shown)	40.3%
COc1ccc(N(CC(=O)NCCSCc2ccc(C)cc2)S(=O)(=O)c2ccccc2)cc1	3.04%
CCCCOc1cccc(OCCCC)c1C(=O)Nc1cc(C)on1	-1.49%
COc1ccccc1C(=O)C1CCCN(C(=O)C2=CC(=O)CC(C)(C)O2)C1 (stereo not shown)	12.5%
O=C(/C=C/c1cccc([N+](=O)[O-])c1)N1CCN(Cc2ccc3c(c2)OCO3)CC1	-41%
CCCOc1ccc(/C=N/NC(=O)CN2CCCCC2)cc1OCC	-51.4%
CN(c1ccccc1)S(=O)(=O)c1ccc(NC(=O)c2ccccc2C(=O)O)cc1	21.7%
COc1ccc(S(=O)(=O)NCCc2c[nH]c3ccc(C)cc23)cc1	14.2%
CCOC(=O)N1CCC(NC(=O)Cn2cccc2C(=O)c2ccccc2)CC1	3.19%
COCCn1c(N)c(N(Cc2ccccc2)C(=O)CSCC(=O)Nc2ccc(OC)cc2)c(=O)[nH]c1=O	3.66%
O=C(NCCCN1CCOCC1)c1sc2cc([N+](=O)[O-])ccc2c1Cl	-54%
OCC1(CCc2ccccc2)CCN(Cc2cnc(N3CCCC3)s2)CC1	-70.3%
CCOc1cc(/C=C2\C(=O)N(c3cccc(C(=O)O)c3)N=C2C(F)(F)F)ccc1OCC(=O)Nc1ccccc1OC	1.54%
CCOC(=O)N1CCC(N(CCOC)C(=O)Nc2ccc(C)c(C)c2)CC1	-23.6%
CCOC(=O)c1c(NC(=O)CN2CCN(C(=O)C3CCCO3)CC2)sc(C)c1C (stereo not shown)	-20.8%
CCn1c(CNC(=O)c2ccc3c(c2)OCO3)nnc1SCC(=O)Nc1ccccc1F	-6.31%
Cc1csc2nc(O)c(C(=O)NCCC3=CCCCC3)c(=O)n12	-2.61%
Cc1ccccc1Nc1nc(N)nc(CSc2n[nH]c(N)n2)n1	14.1%
CN(C(=O)CCN1C(=O)/C(=C/c2ccccc2)SC1=S)C1CCS(=O)(=O)C1 (stereo not shown)	-10.6%

Structure (SMILES)	hERG current change (%, negative = inhibition) at 10uM
O=C1C(CSCc2ccccc2)NC(=S)N1c1ccccc1 (stereo not shown)	16%
C=CCN(C(=O)CNS(=O)(=O)c1ccccc1)C(C(=O)NCCOC)c1cccnc1 (stereo not shown)	2.57%
O=C(Nc1ccc2c(c1)OCO2)c1ccc(Cl)c(S(=O)(=O)N2CCOCC2)c1	-33.6%
CCOc1ccc(C(=O)N2CCn3c2nc2ccccc23)cc1	-5.37%
CCOc1ccc(C(=O)NCC(=O)OCc2nnc(-c3ccccc3)o2)cc1OCC	-19.2%
CC(c1ccccc1)n1cc(C(=O)NCC2COc3ccccc3O2)nn1 (stereo not shown)	14.3%
CC(=O)Nc1ccc(NC(=O)C2CCCN2C(=O)NCc2ccccc2)cc1 (stereo not shown)	16.4%
CCOP(=O)(c1ccccc1)c1nc(-c2ccccc2C)oc1NCc1ccccc1 (stereo not shown)	15.5%
CCC1CCCCN1CCCNC(=O)c1c(O)nc2cc(C)ccn2c1=O (stereo not shown)	-0.206%
COc1ccc(NC(=O)C2CC2)cc1-n1cnnn1	5.86%
COc1ccc(-c2c(C)nn3c(N)c(C#N)cnc23)cc1OC	11.9%
CCCCNC(=O)NC1CCCC1	4.48%
COc1ccc(Nc2nc(-c3ccccc3F)nc3ccccc23)cc1OC	0.695%
CN(C)S(=O)(=O)c1cccc(C(=O)NC(=S)N(CCC#N)Cc2cccnc2)c1	8.09%
COc1cc(/C=C2/C(=O)NC(=O)N(c3ccc(C)cc3)C2=O)cc(OC)c1OC	7.15%
Cc1nnc2n1N=C(c1ccc(OC(F)F)cc1)C(C)S2 (stereo not shown)	-32.7%
O=C(Oc1ccc2c(c1)C(=O)c1ccccc1CO2)c1ccccc1	2.6%
c1nc2ccc(Cc3ccc4nc[nH]c4c3)cc2[nH]1	6.72%
CCc1cc2c(=O)n(Cc3ccccc3)c(SC3CCOC3=O)nc2s1 (stereo not shown)	-80.4%
COc1ccc(CCNC(=O)C(=O)NCC2OCCN2C(=O)c2ccc(Cl)cc2)cc1 (stereo not shown)	7.49%
COc1cc(S(=O)(=O)N2CCN=C2c2ccccc2)ccc1Cl	16.6%
COC(=O)c1ccc(NC(=O)CSc2nncn2-c2cccnc2)cc1	-1.37%
